# Assay results: PubChem BioAssay (NCI)
# Values joined by “and” are separate entries in the source; they are usually repeats but may differ in a detail not shown here. Identical values can stand only once.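 Values below derive from 48-hour exposures of cells grown in 96-well plates, with endpoints linearly interpolated between the two concentrations bracketing the appropriate inhibition level. Here, GI50 denotes the concentration required for 50% inhibition of growth. TGI is the concentration that stops growth completely.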
# Test system: NCI-H322M lung
# Test: growth of human tumour cells (NCI), 48 h
SMILES,TGI,GI50
CC=CCOc1cc(NC(=S)OC(C)C)ccc1Cl (mixture of isomers),46.2 µM,–
CC#C/C(=N\OC[C@H]1COCCN1)c1ccc2ncnc(Nc3ccc(OCc4cccc(F)c4)c(Cl)c3)c2c1,1.75 µM,0.227 µM
CN(CCO)c1nc(N)cc(=O)[nH]1,> 100 µM,–
Nc1ncnc2c1c(-c1cccc(OCc3ccccc3)c1)cn2C1CC(CN2CCC2)C1 (configuration not stated),16.1 µM and > 10 µM,2.26 µM and 6.29 µM
O=C1CC(=O)NC(=NN2C(=O)/C(=C/c3ccccc3)N=C2c2ccccc2)N1,> 100 µM,–
CCOC(=O)C(C(=O)c1ccccc1C(=O)OC)=P(c1ccccc1)(c1ccccc1)c1ccccc1,> 10 µM,–
CCOC(=O)C(=O)Nc1ccc(Cl)cc1C,> 100 µM,–
CC(=O)c1ccc2c(ccc(=O)n2C)c1,> 100 µM,–
O=C(Nc1ccccc1O)c1ccc(CNc2ccnc(C(F)(F)F)c2)cc1,> 100 µM,3.78 µM
OC(COc1ccc(F)cc1)Cn1cnc2c(Cl)ncnc21 (configuration not stated),> 100 µM,70.5 µM
CCN(CC)CCN1C(=O)c2c(c(-c3ccccc3)c3ccccc3c2-c2ccccc2)C1=O,> 100 µM,–
Cc1cc(O)c(C2=NN(c3ccc(S(N)(=O)=O)cc3)C(c3ccc(N(C)C)cc3)C2)c(C)c1Cl (configuration not stated),38.9 µM,18 µM
COC(=O)CCC(=O)Nc1cc(Cl)ccc1Cl,> 100 µM,–
CC(=O)Oc1ccc2c(c1)oc1c3ccc(OC(C)=O)cc3n(C)c(=O)c21,> 100 µM,–
CC1=C(C(=O)NCc2ccccc2)C(c2ccc([N+](=O)[O-])cc2)C(C(=O)NCc2ccccc2)=C(C)N1,98 µM,–
CC(C)OP(=O)(OC(C)C)/C(C#N)=C/c1ccco1,> 100 µM,–
Cc1ccc(C2NC(=O)c3ccccc3N2)s1 (configuration not stated),> 100 µM,–
CN(C)CC1COC2Cc3ccccc3C1O2 (configuration not stated),> 100 µM,–
C=C(C)C1CC/C(C)=C/CC[C@]2(C)O[C@H]2CC/C(COC(C)=O)=C\[C@@H]1O (some centres not stated),> 50 µM,–
C[C@@H](CN1CC(=O)NC(=O)C1)N1CC(=O)NC(=O)C1,1490 µM,–
CC1=CCC2C3(C)CCC2(C(C)C)C1C3 (configuration not stated) (tested in a mixture with another compound),> 100 µM,–
Cc1cccc(CC(Cc2c(C)cccc2C(=O)O)C(=O)O)c1 (configuration not stated),> 100 µM,–
O=C(/C=C1\C[C@H]2C=Nc3ccccc3C(=O)N2C1)NCCCCNC(=O)/C=C1\C[C@H]2C=Nc3ccccc3C(=O)N2C1,31.6 µM,–
COc1ccc(/C=C2\CCC(C)/C(=C\c3ccc(OC)c(OC)c3)C2=O)cc1OC (configuration not stated),37.9 µM,–
CCCCCCCCCc1cc[n+](CC(=O)c2ccc([N+](=O)[O-])cc2)cc1,3.52 µM,1.95 µM

SMILES,TGI,GI50
CCCCOC(=O)NC(Nc1cccc(C(F)(F)F)c1)(C(F)(F)F)C(F)(F)F,> 100 µM,–
O=C(O)CS,> 100 µM,–
CC(=O)OC1CC2Oc3ccc(C)cc3C(C)(O2)C1=O (configuration not stated),> 100 µM,–
COc1ccc(C[C@@H]2NC[C@@H](O)[C@@H]2OC(C)=O)cc1,–,1.24 µM
CCOC(=O)Cc1csc2[n+]1C(=O)/C(=C\c1cccc(Cl)c1Cl)S2,> 100 µM,–
O=c1cc(-c2ccccc2)oc2cc(O)cc(O)c12,78.2 µM,–
N=c1c2c(=S)n(-c3ccccc3)c(=S)n(-c3ccccc3)c2nc(SCCCN2CCN(c3cccc(Cl)c3)CC2)n1-c1ccccc1,> 100 µM,–
COC1=CC(=O)C(OC)=C(OC)C1=O,36.1 µM,20 µM
COc1cc2c(cc1OC)C(OC)N(C)c1c-2ccc2cc3c(cc12)OCO3 (configuration not stated),25.5 µM,–
CC(=O)Oc1cc2c(c3ncccc13)OC(C)(C)C2,26.6 µM,–
NC(=O)NC(=O)c1cccc(CNc2ccc(C(=O)N[C@@H](CCC(=O)O)C(=O)O)cc2)n1,> 100 µM,–
O=C(O)c1ccc(S(=O)(=O)Nc2ccc3oc4c(c3c2)C(=O)CCC4)cc1,> 100 µM,> 100 µM
Nc1ccccc1NC(=O)c1ccc(CCCC(=O)Nc2ccc(C3CC3N)cc2)cc1 (configuration not stated),27.5 µM,2.8 µM
CN(C)C/C=C/C(=O)Nc1cc2c(Nc3ccc(F)c(Cl)c3F)ncnc2cc1OCCOC(F)F,2.09 µM,< 0.01 µM
CCOC(=O)c1c(C)cc(=O)n2c1[nH]c1ccccc12,> 100 µM,–
Cc1nc([C@H]2CC[C@H]3[C@@H]4CCC5=CC(=O)CC[C@]5(C)[C@H]4CC[C@]23C)cs1,> 100 µM,> 95.9 µM
Cc1ccc([N+](=O)[O-])cc1S(=O)(=O)Nc1ccc(C2=NNC(c3ccccc3O)C2)cc1 (configuration not stated),90.1 µM,–
CN(CC#N)C1CCCC[C@H]1O (some centres not stated),> 100 µM,–
O=S(=O)(SCc1ccccc1)C(c1ccccc1)c1ccccc1,> 100 µM,–
Cc1[nH]c2ccccc2c1-c1cc(-c2cc(-c3c(C)[nH]c4ccccc34)nc(N)n2)nc(N)n1,> 100 µM,–
CC(C)(C)NC(=O)NC12CC3CC(CC(F)(C3)C1)C2,> 100 µM,–
C/C(=N\Nc1nc2ccccc2n1C)c1cnccn1,> 100 µM,–
N#CSc1c[nH]c2ccc(/C=C/C(=O)/C=C(/C=C/c3ccc4[nH]cc(SC#N)c4c3)OB(F)F)cc12,> 100 µM,18.6 µM
Cc1ccc2c(n1)C(=O)C=CC2=O,31 µM,–
c1ccc(C2=NOC3(c4ccccc4)SC4CCCCC4CN23)cc1 (configuration not stated),> 100 µM,–
